# According to PubChem BioAssay AID686979 (National Center for Advancing Translational Sciences (NCATS), 2013):
# Out of some 420,000 compounds screened, about 50,000 (12%) were called active. This list was built around the results that the source calls inconclusive (neither active nor inactive); the mix of calls is not that of the screen. Calls follow the shape of the dose curve; as a rule, active = well fitted inhibition curve with a large enough effect; inconclusive = small, poorly fitted or top-dose-only effect; inactive = flat fitted curve, though single readings scatter. Potencies of inconclusive entries are left out as doubtful fits.
# Assay: qHTS for Inhibitors of human tyrosyl-DNA phosphodiesterase 1 (TDP1): qHTS in cells in presence of CPT; also: nearly all actives have a fitted effect of over 55% in size
# Conditions: chicken DT40 Tdp1-/-;hTDP1 cells + 20 nM CPT, ATP luminescence, 48 h; activity change, negative = growth inhibition: at 46.2 µM (top of the series) unless noted
# Procedure, shortened: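 Chicken DT40 Tdp1-/- cells complemented with human TDP1, 400 cells/well, exposed to compounds plus 20 nM camptothecin for at least 48 h at 37 C; viability read as ATP content by CellTiter-Glo luminescence.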
# % is scaled to controls: 0 for no effect and ±100 for the full control effect; potency is read from the fitted curve at half-maximal effect; tags tell the direction and shape of the fitted curve.
Compound,"activity change, negative = growth inhibition",Potency
C#CCOCCOCCOCCNc1nc(N2CCOCC2)nc(N2CCN(C(=O)Cn3cc(CCCN=C(N)N)nn3)CC2)n1,inactive: -3.7%,
c1ccc(-c2cc3c(ccc4nonc43)nn2)cc1,,"inconclusive [inhibitor, single point]"
COC(=O)[C@@]12C[C@@H](CC(=O)NCc3ccccc3)C(=O)N(Cc3ccco3)C1=CCC(C)(C)C2,,active: 18.4 µM
Cc1ccc(C(=O)N2CCN(c3cccc(Cl)c3)CC2)cc1C,,"inconclusive [inhibitor, single point]"
O=S(=O)(NCC(c1ccco1)N1CCN(c2ccccc2)CC1)c1ccccc1 (centres undefined),,"inconclusive [inhibitor, single point]"
O=C1CCC(=O)N1CCSC(=S)N1CCOCC1,inactive: -1.39%,
CCCNc1nc(Cl)nc(NC(C)(C)C)n1,inactive: 1.39%,
COc1cc(-c2n[nH]c(=S)n2-c2cccc(C(F)(F)F)c2)cc(OC)c1OC,inactive: -8.26%,
COc1cc(C(=O)NCc2nnc(SCC(=O)N3CCc4ccccc43)o2)cc(OC)c1OC,inactive: -3.37%,
Cc1nnsc1C(=O)N1CCCC(C(=O)c2ccc(C(F)(F)F)cc2)C1 (centres undefined),,"inconclusive [inhibitor, single point]"
COc1ccccc1CNC(=O)c1cc2c(-c3ccc(Cl)cc3)nn(C)c2s1,,"inconclusive [inhibitor, single point]"
CN(C)CCCN(C(=O)c1nc2ccccc2s1)c1nc2ccc(F)cc2s1,,active: 3.66 µM
CCn1ccc2c(OCC(=O)Nc3ccc(C(C)=O)cc3)cccc2c1=O,,"inconclusive [inhibitor, single point]"
COc1ccc([C@H]2CC(=O)C=C(c3cccc(Cl)c3O)C2)cc1OC,,"inconclusive [inhibitor, single point]"
COc1cc(-c2noc(C)c2C(=O)NCCc2ccccc2)cc(OC)c1OC,,"inconclusive [inhibitor, single point]"
O=c1c(Cl)c(N2CCN(c3ccccc3)CC2)cnn1C12CC3CC(CC(C3)C1)C2,,active: 25.9 µM
CN(C1CCCCC1)S(=O)(=O)c1ccc2c(c1)c(=O)c(C(=O)NCc1ccc(F)cc1)cn2C,,"inconclusive [inhibitor, single point]"
Cn1cc(C(F)(F)F)nc1-c1ccc(OC[C@@H](O)CNCCOc2ccc(O)c(C(N)=O)c2)cc1,inactive: -29.9%,
Cc1cccc(OCC(=O)NNC(=O)C2CCN(c3ncnc4sc(C)c(C)c34)CC2)c1,,"inconclusive [inhibitor, single point]"
Cc1cc(-c2cc(-c3ccc(Cl)cc3)on2)nc(NCC2CC2)n1,,"inconclusive [inhibitor, full curve, poor fit]"
O=C(c1ccc2c(c1)N(Cc1ccc(Cl)cc1)C(=O)c1ccccc1S2(=O)=O)N1CCC(Cc2ccccc2)CC1,,active: 10.3 µM
CC1CC(C)(C)CC2(C1)NC(=O)N(CC(=O)Nc1ccc3c(c1)OCO3)C2=O (centres undefined),inactive: 3.72%,
O=C(Nc1ccc(Cl)cc1)NC1(C(=O)NCCCN2CCOCC2)CCCCC1,inactive: -0.385%,
Cc1ccc(S(=O)(=O)Nc2ccc3[nH]c(=O)sc3c2)cc1C,,"inconclusive [inhibitor, single point]"
COc1ccc(CNC(=O)CN(C)S(=O)(=O)c2ccc(Br)s2)cc1,,"inconclusive [inhibitor, partial curve]"

Compound,"activity change, negative = growth inhibition",Potency
CCOc1ccc(NC(=O)c2sc3nc(N4CCOCC4)c4c(c3c2N)CCCC4)cc1,,"inconclusive [inhibitor, single point]"
COc1ccccc1C(=O)Nc1ccnn1C1CCN(Cc2ccn[nH]2)CC1,inactive: -2.32%,
Cc1ccc(S(=O)(=O)NCc2ccccc2)cc1C(=O)N1CCN(c2ccccc2)CC1,,"inconclusive [inhibitor, single point]"
C=Cc1ccc(Cn2c(C)c(C(=O)NCc3ccc(Cl)c(Cl)c3)sc2=O)cc1,,"inconclusive [inhibitor, single point]"
COc1ccc(-c2noc(CCC(=O)NCc3cccnc3)n2)cc1,,"inconclusive [inhibitor, single point]"
Cc1ccc(-n2[nH]c(C)c(/C=N/Nc3ccc([N+](=O)[O-])cc3[N+](=O)[O-])c2=O)cc1C,,"inconclusive [inhibitor, partial curve]"
Cc1ccc(S(=O)(=O)NN)c(C)c1N1CCCC1=O,inactive: -0.69%,
O=c1[nH]nc(Cc2ccccc2)c2ccccc12,,active: 7.31 µM
CCOc1ccc(NC(=O)CSC2=Nc3ccccc3C3=NC(CC(=O)NCc4ccccc4OC)C(=O)N23)cc1 (centres undefined),,"inconclusive [inhibitor, partial curve]"
COc1cccc(-n2c(=O)c3cc(OC)c(OC)cc3n(CC(=O)Nc3ccccc3)c2=O)c1,,"inconclusive [inhibitor, partial curve, poor fit]"
NS(=O)(=O)c1ccc(NC(CNS(=O)(=O)c2ccccc2)c2ccccc2)cc1 (centres undefined),inactive: -29.1%,
c1ccc(-c2noc(-c3cccnc3)n2)nc1,inactive: -23.4%,
Cc1cc(C(=O)N2CCC(Cc3ccccc3)CC2)no1,inactive: -9.09%,
CNc1nc2ccccc2n1/N=C/c1cccc(OC)c1OC,,"inconclusive [inhibitor, single point]"
CCOC(=O)N1CCC(NC(=O)c2cc(COc3ccccc3SC)on2)CC1,,active: 3.66 µM
Brc1cccc(/C=N/Nc2nn[nH]n2)c1,inactive: -17.3%,
Cc1cc(C)c2c(N)c(C(=O)c3ccc(Br)cc3)oc2n1,,"inconclusive [inhibitor, partial curve, poor fit]"
COc1ccc(CCn2c(=O)c3ccccc3n(CC(=O)Nc3cccc(C)c3)c2=O)cc1OC,inactive: -10.6%,
Cc1ccc(C)c(S(=O)(=O)c2cn(C)c3cc(F)c(F)cc3c2=O)c1,inactive: -17.6%,
CCN1c2ccccc2NC2C1C(C(C)=O)C(=O)N2c1ccc(Cl)cc1 (centres undefined),,active: 20.6 µM
Cc1cc(C)c2sc(N(CCCN(C)C)C(=O)CN3C(=O)c4ccccc4C3=O)nc2c1,,"inconclusive [inhibitor, single point]"
CSc1ccc(CN2CCC2(C)C(=O)NCc2ccc3c(c2)OCO3)cc1 (centres undefined),,active: 14.6 µM
COc1cccc(NC(=O)COC(=O)c2c(F)cccc2F)c1,inactive: -22.5%,
Cc1oc(-c2ccccc2F)nc1CS(=O)(=O)CC(=O)N1CCN(c2ccc(Cl)cc2)CC1,,active: 25.9 µM
COc1ccc(CCNC(=O)Cn2nnc(C(=O)Nc3ccc(Br)cc3)c2N)cc1OC,,"inconclusive [inhibitor, single point]"

Compound,"activity change, negative = growth inhibition",Potency
Cc1cc2ccccc2nc1SCC(=O)N1CCCC1,inactive: -13.8%,
CNC(=O)CN(CCN(CCN(CC(=O)[O-])CC(=O)NC)CC(=O)[O-])CC(=O)[O-].O.[Gd+3],,inactive
CC(=O)OC1CC2C(C)(C)C(=O)C3OC3[C@]2(C)C2CC[C@@]3(C)C(c4ccoc4)OC(=O)C4OC43[C@]12C (some centres undefined),inactive: 6.9%,
COc1ccc(CNC(=O)c2nnn(-c3cccc(C(F)(F)F)c3)c2N)cc1,inactive: -19.9%,
Cc1ccc(N2CC(=O)N(CC(=O)O)C2=O)cc1,inactive: 21.2%,
Cc1ccc(S(=O)Cc2ccc(C(=O)NC3CCCCCC3)o2)cc1 (centres undefined),inconclusive: -31.5% [inhibitor],
CCN(CC)S(=O)(=O)c1ccc2[nH]cc(C(=O)NC3CC3)c(=O)c2c1,,"inconclusive [inhibitor, single point]"
COc1ccccc1N1CCN(C(=O)c2ccc(Cl)c(S(=O)(=O)N3CCOCC3)c2)CC1,,active: 25.9 µM
CCCCn1c(SCC(=O)Nc2ccccc2C(F)(F)F)nc2ccsc2c1=O,inactive: -17.1%,
O=C(Nc1cc(-c2nc3ncccc3o2)ccc1Cl)c1cccs1,,"inconclusive [inhibitor, single point]"
Fc1ccc(CCNC(=S)Nc2ccc(F)cc2)cc1,,"inconclusive [inhibitor, single point]"
N#Cc1c(N)sc2c1CCN(C(=O)OCc1ccccc1)C2,inactive: -15.3%,
C[C@H](NC(=O)c1nc[nH]c1C(=O)N[C@@H](Cc1ccccc1)C(=O)OCc1ccccc1)C(=O)OCc1ccccc1,,"inconclusive [inhibitor, single point]"
COc1cccc(CNC(=S)Nc2ccc3c(c2)c(=O)n(C)n3Cc2ccc(F)cc2)c1,,"inconclusive [inhibitor, partial curve, poor fit]"
Cc1nc2cccc(C(=O)NCc3ccccc3)c2o1,inactive: -9.81%,
COc1ccc(C2C(C#N)C(C#N)N3CCCN23)cc1 (centres undefined),inactive: -11.4%,
COc1ccc(NC(=O)c2oc3ccccc3c2NC(=O)c2ccco2)cc1,,"inconclusive [inhibitor, single point]"
CN(C)/C=C/C(=O)c1cccc(C(F)(F)F)c1,inactive: 0.615%,
Clc1ccccc1C(c1nnnn1Cc1ccco1)N1CCN(Cc2ccco2)CC1 (centres undefined),inactive: -10.4%,
CCN(CC)c1nc(C#N)nc(OC)n1,,"inconclusive [inhibitor, full curve, poor fit]"
CCN(C(=O)CCS(=O)(=O)c1ccc2c(c1)oc(=O)n2C)c1ccc(OC)cc1,,inactive
Cc1ccccc1CN1C(=O)c2ccccc2S(=O)c2ccc(C(=O)NCc3ccco3)cc21 (centres undefined),,"inconclusive [inhibitor, single point]"
Cc1[nH]c2ccc(C(=O)Nc3ccc(F)cc3)cc2c1C,,"inconclusive [inhibitor, partial curve]"
COCCCN(C(C)=O)c1nc(-c2ccccc2)cs1,,"inconclusive [inhibitor, partial curve, poor fit]"
